From PubChem BioAssay AID488969 (Vanderbilt High Throughput Screening Facility, 2010)
Whole data set: some 110,000 compounds, median “z-score” near -0.1, cut for the highest 2% near 2. The list shows a part of the results. Calls of active or inactive are those of the source.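 The calls were made as follows: active = z-score in the third read window above 3 or below -3; inactive = the rest.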

molecular target: Metabotropic glutamate receptor 8 (Rattus norvegicus) (UniProt P70579); assay: mGluR8 Gi/Go-coupled signaling modulation – cell-based, rat, thallium flux, HTS, primary screen (AID 488969); details: HEK293 rat mGluR8, GIRK (G protein-gated inwardly rectifying potassium channel) thallium flux, FluoZin2; at 10 µM; stronger effect = higher value; submaximal glutamate (EC20) added with thallium
Chain of UniProt P70579 (P70579 whole entry, looked up): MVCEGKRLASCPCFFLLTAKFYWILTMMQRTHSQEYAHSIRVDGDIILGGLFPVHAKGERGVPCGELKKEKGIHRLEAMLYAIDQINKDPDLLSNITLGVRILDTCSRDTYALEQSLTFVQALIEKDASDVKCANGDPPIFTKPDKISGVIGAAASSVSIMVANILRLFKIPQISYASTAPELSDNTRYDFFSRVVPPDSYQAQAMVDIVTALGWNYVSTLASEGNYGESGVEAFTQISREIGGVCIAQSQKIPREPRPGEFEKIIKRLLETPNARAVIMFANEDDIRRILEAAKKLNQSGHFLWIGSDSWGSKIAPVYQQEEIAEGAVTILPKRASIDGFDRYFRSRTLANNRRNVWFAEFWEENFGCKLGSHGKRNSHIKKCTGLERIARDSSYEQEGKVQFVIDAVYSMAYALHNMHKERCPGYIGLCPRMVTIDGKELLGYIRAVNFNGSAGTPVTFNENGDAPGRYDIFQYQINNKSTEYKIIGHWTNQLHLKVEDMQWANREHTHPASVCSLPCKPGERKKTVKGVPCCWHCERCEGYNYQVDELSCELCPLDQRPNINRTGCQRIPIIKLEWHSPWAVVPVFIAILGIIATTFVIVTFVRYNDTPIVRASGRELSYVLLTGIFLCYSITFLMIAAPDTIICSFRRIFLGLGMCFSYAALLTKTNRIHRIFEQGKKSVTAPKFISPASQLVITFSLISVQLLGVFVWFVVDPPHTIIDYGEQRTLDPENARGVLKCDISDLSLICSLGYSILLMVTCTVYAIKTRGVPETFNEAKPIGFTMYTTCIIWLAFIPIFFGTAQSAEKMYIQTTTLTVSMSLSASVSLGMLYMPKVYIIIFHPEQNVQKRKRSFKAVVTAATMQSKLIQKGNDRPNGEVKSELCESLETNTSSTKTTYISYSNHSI

Going from `COc1cc(C2Nn3c(nnc3-c3ccccc3OC)S2)ccc1O` (configuration not stated) to `COc1ccc(OC2C(=O)N(c3cc(C)ccc3C)C2c2ccc(OC)c(OC)c2)cc1` (configuration not stated), the z-score falls from -0.0272 to -0.0868.

Compared with `CC(C)(C)NC(=O)COc1ccc(CNc2ccc3[nH]c(=O)[nH]c3c2)cc1`, `Cn1c(SCC(=O)NC(C)(C)C)nnc1-c1cccc(NC(=O)c2ccccc2F)c1` is lower in z-score: -0.0446 for the first, -0.127 for the second.

First: Cc1cc2oc(=O)cc(CN3CCN(S(=O)(=O)/C=C/c4ccccc4)CC3)c2cc1C
Second: Cn1cc(C(=O)N/N=C/C2=C(N3CCOCC3)C(=C\c3ccccc3)/CC2)ccc1=O
The z-score of the first is higher: -0.0277 for the first, -0.485 for the second.

Going from `CCOC(=O)c1sc(-c2ccccc2)cc1NC(=O)CSc1nnnn1C` to `Cc1nnc(SCC(=O)Nc2ncc(Cl)cc2Cl)n1Cc1ccccc1`, the z-score falls from 0.0316 to -0.956.

First: O=C(Nc1ccc2c(c1)OCCO2)NC1CCCCC1
Second: Cc1nn(C)c(C)c1S(=O)(=O)N(CC(=O)NC1CCCCCC1)c1ccc(C(C)C)cc1
The z-score of the first is higher: 0.679 for the first, -0.146 for the second.

First: COc1ccc(C)cc1NS(=O)(=O)c1cn(C)c(=O)n(C)c1=O
Second: Cc1ccc(-c2csc(NC(=O)Cn3cnc4c3c(=O)n(C)c(=O)n4C)n2)cc1C
The z-score of the first is lower: -0.228 for the first, -0.0107 for the second.

Compared with `Nc1nnc(CCCCc2cccs2)o1`, `Cc1ccc(S(=O)(=O)NCC(=O)N(CC(=O)NC(C)(C)C)Cc2cccs2)cc1` is lower in z-score: 0.143 for the first, -0.259 for the second.

First: CCc1ccc(OCCOCC(O)CN(CCO)CCO)cc1 (configuration not stated)
Second: CCc1ccc(NC(=O)N(CCN2CCOCC2)C2CCN(C(C)=O)CC2)cc1
The z-score of the first is lower: -0.151 for the first, 0.399 for the second.

Compared with `Cc1c(Br)c(=O)[nH]c(=O)n1COCc1ccccc1`, `O=C1C(=Cc2cccs2)C(=O)c2ccccc21` is lower in z-score: -0.214 for the first, -0.228 for the second.

First: O=C(NCc1cn2ccsc2n1)Nc1ccc(Cl)cc1
Second: O=C(CCNc1ccc(Cl)cc1)c1cccs1
The z-score of the first is higher: 0.193 for the first, -0.194 for the second.

Going from `CCOc1ccc(-c2[nH]nc3c2C(c2ccc(O)cc2)C(C#N)=C(N)O3)cc1` (configuration not stated) to `COc1ccc(NC2CC(=O)N(c3cccc(C)c3)C2=O)cc1` (configuration not stated), the z-score falls from 0.576 to 0.542.

Compared with `O=C(Cc1ccc(Br)cc1)Nc1ccccc1Sc1ccccc1`, `CCC(=O)Nc1ccc(C(=O)c2ccccc2)cc1` is higher in z-score: -0.136 for the first, 0.687 for the second.

Going from `CCCCC(=O)Nc1ccc(C(=O)NCC(=O)OC)cc1` to `CC(C)NC(=O)CCNC(=O)c1ccc(F)cc1`, the z-score falls from 0.16 to -0.0764.

First: C=CC[C@@H]1Cc2c(Br)ccc(Br)c2[C@@H](CC=C)N1
Second: Cn1ncc(C#N)c1NC(=O)C1CC(c2c(F)cccc2Cl)=NO1 (configuration not stated)
The z-score of the first is higher: -0.169 for the first, -0.332 for the second.

First: COC(=O)c1cnc(SC)nc1C
Second: COC(=O)Nc1snnc1C
The z-score of the first is higher: 0.0256 for the first, -0.189 for the second.

Compared with `CC1(C)CC2CC(C)(CN2S(=O)(=O)c2ccc(C(=O)Nc3cc(S(=O)(=O)N4CCOCC4)ccc3Cl)cc2)C1` (configuration not stated), `O=C(O)c1cc(S(=O)(=O)N2CCOCC2)ccc1N1CCOCC1` is higher in z-score: 0.124 for the first, 0.162 for the second.

Going from `N/C(=N\OC(=O)C12CC3CC(CC(C3)C1)C2)c1cccnc1` to `CCC(Sc1ncccc1C(=O)O)C(=O)N1CCCC1` (configuration not stated), the z-score falls from -0.073 to -0.388.

Compared with `Cc1ccc(SCCNC(=S)Nc2ccccc2)cc1`, `O=C(NNc1cccc(Cl)n1)Nc1ccccc1` is lower in z-score: 0.378 for the first, 0.335 for the second.

Compared with `COc1ccc(NC(=O)c2ccc(=O)[nH]c2)cc1S(=O)(=O)N1CCCCC1`, `CN(C)S(=O)(=O)Oc1cccc(C(=O)Nc2ccc(Cl)c(Cl)c2)c1` is lower in z-score: 0.108 for the first, -0.319 for the second.

Compared with `CCOc1ccc2nc(SCC(=O)c3ccc(C)s3)sc2c1`, `COc1ccc(/C=N/NC(=O)Cc2csc(Nc3cccc(C(F)(F)F)c3)n2)cc1C` is lower in z-score: 0.0305 for the first, -0.115 for the second.

Compared with `O=C(COc1ccc(Cl)cc1Cl)NCCC1=CCCCC1`, `CC(C(=O)Nc1ccc(Cl)cc1)c1ncc(C(F)(F)F)cc1Cl` (configuration not stated) is lower in z-score: -0.104 for the first, -0.108 for the second.

Going from `CCN(CC(O)Cn1c2ccccc2c2ccccc21)S(=O)(=O)c1ccc(F)cc1` (configuration not stated) to `COC(=O)N/N=C/c1c(C)c(C(=O)c2ccc(F)cc2)n2ccccc12`, the z-score falls from -0.0975 to -0.428.

Compared with `CCCCCCn1c2c(c(=N)c3c1CCC3)CCC2`, `COc1cc(NC(=O)CN2CCCCC2)c(C)cc1[N+](=O)[O-]` is lower in z-score: 1.81 for the first, -0.415 for the second.

Compared with `COc1cc(OC)c2c(N)c(C#N)c(C(F)(F)C(F)(F)F)nc2c1`, `COc1ccc(C2SCC(C(=O)O)N2C(C)=O)cc1OC` (configuration not stated) is higher in z-score: -0.515 for the first, 0.334 for the second.

First: COCCNC(=O)C(c1cccs1)N(Cc1ccccc1)C(=O)Cn1nnc2ccccc21 (configuration not stated)
Second: CC(C)(C)c1ccc(C(=O)N2CCN(CCNC(=O)C(=O)NCc3ccccc3)CC2)cc1
The z-score of the first is higher: 0.806 for the first, -0.158 for the second.

Going from `Cc1sc(NC(=O)CSc2nnc(C)c(=O)[nH]2)c(C#N)c1C` to `O=C(Nc1cccc(Cn2cccn2)c1)c1cc2c(s1)CCCC2`, the z-score rises from -0.571 to -0.413.

Compared with `O=C1C2CC=C(Cl)CC2C(=O)N1CCC[n+]1cccc2ccccc21` (configuration not stated), `O=C(c1cnn2c1NC(c1ccco1)CC2C(F)(F)F)N1CCN(c2cccc(Cl)c2)CC1` (configuration not stated) is lower in z-score: 0.155 for the first, -0.25 for the second.

Work on `Cc1ccccc1C(=O)NC(=S)NCCN1CCOCC1` yielded a z-score of -0.215.

In the case of `CCSc1nnc(NC(=O)C(Cc2ccccc2)n2cccc2)s1` (configuration not stated), the z-score is reported as active: 4.24.
In the case of `COc1ccc(CN(C)CC(=O)NC(=O)NCc2ccccc2)cc1OC`, the z-score is reported as active: 5.52.
